Measurements taken from PubChem BioAssay AID686979 (National Center for Advancing Translational Sciences (NCATS), 2013).
Out of some 420,000 compounds screened, about 50,000 (12%) were called active. The inconclusive results got no clear call from the source; some entries with a clear call stand among them for comparison. Calls come from the whole dose curve; as a rule, active = well fitted inhibition curve with a large enough effect; inconclusive = small, poorly fitted or top-dose-only effect; inactive = flat fitted curve, though single readings scatter. No potency is given beside an inconclusive call; the fits are too rough.
Potency is the fitted concentration of half-maximal effect; tags give direction and shape of the fitted curve.

Assay: qHTS for Inhibitors of human tyrosyl-DNA phosphodiesterase 1 (TDP1): qHTS in cells in presence of CPT; note: nearly all actives have a fitted effect of over 55% in size
Settings: chicken DT40 Tdp1-/-;hTDP1 cells + 20 nM CPT, ATP luminescence, 48 h; series mostly up to 46.2 µM
Method in brief: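 Chicken DT40 Tdp1-/- cells complemented with human TDP1, 400 cells/well, exposed to compounds plus 20 nM camptothecin for at least 48 h at 37 C; viability read as ATP content by CellTiter-Glo luminescence.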
In the case of CCOC(=O)CC(N)c1cccc([N+](=O)[O-])c1 (stereo not drawn), the Potency was “inactive”. For COc1ccccc1C1=NOC(Cn2c(NCCOCCO)nc3c2c(=O)n(C)c(=O)n3C)C1 (stereo not drawn), the Potency was inconclusive [inhibitor, single point]. With COc1ccc(S(=O)(=O)N(CC(=O)NC2CC3CCC2C3)c2ccccc2OC)cc1 (stereo not drawn) the Potency was inconclusive [inhibitor, single point]. For Cc1cc(-c2ccc(C)c(S(=O)(=O)N3CCN(c4ccc([N+](=O)[O-])cc4)CC3)c2)on1, the Potency was inconclusive [inhibitor, partial curve, poor fit]. For COc1ccc(Cn2c(=O)[nH]c3cc(C(=O)Nc4ccc(N5CCN(C)CC5)cc4)ccc32)cc1, the Potency was inconclusive [inhibitor, single point]. With COc1cc(-c2noc(C)c2/C=C/c2ccc(C(=O)O)cc2)cc(OC)c1OC the Potency was inconclusive [inhibitor, single point]. With CSc1ccc(CCNC(=O)C(C)n2nc(C)c3c(C)n(-c4ccccc4)nc3c2=O)cc1 (stereo not drawn) the Potency was inconclusive [inhibitor, single point]. For O=C(Nc1ncc([N+](=O)[O-])s1)c1ccco1, the Potency was inconclusive [inhibitor, partial curve]. In the case of COc1cccc(CN(C)CC(=O)Nc2ccccc2C(C)C)c1, the Potency was inconclusive [inhibitor, single point]. With CCc1nc2c(OCC3COc4ccccc4O3)cccn2c1N(C)C(=O)c1ccc(OC)cc1 (stereo not drawn) the Potency was inconclusive [inhibitor, single point]. For COCCn1c(C)cc(C(=O)COC(=O)Cc2n[nH]c(=O)c3ccccc23)c1C, the Potency was inconclusive [inhibitor, single point]. With CCOc1ccc(/C=C/c2ccc3ccccc3[n+]2C)cc1OCC the Potency was active: 3.98 µM. With COc1ccc2[nH]cc(/C=C(/C#N)S(=O)(=O)c3ccccc3)c2c1 the Potency was inconclusive [inhibitor, single point]. In the case of O=C(CC1Nc2ccccc2NC1=O)Nc1ccccc1 (stereo not drawn), the Potency was inconclusive [inhibitor, single point]. For CCOC(=O)N1CCC(N(CCCOC)C(=O)Nc2ccc(CC)cc2)CC1, the Potency was active: 18.4 µM. With O=C1CCCN1CCC12CC3CC(CC(C3)C1)C2 the Potency was inconclusive [inhibitor, single point]. For Nc1nc(-c2ccc(Cl)cc2)nc(-c2ccc(Cl)cc2)n1, the Potency was “inactive”. In the case of CCCC12CN3CC(C)(CN(C1)C3c1ccc3c(c1)OCO3)C2=O (stereo not drawn), the Potency was inconclusive [inhibitor, single point]. With OCc1ccnc2c(O)cccc12 the Potency was inconclusive [inhibitor, single point]. For COc1ccc(NC(=O)CN(C)C(=O)c2ccccc2SCC(=O)N2CCCC2)cc1, the Potency was “inactive”. For COc1ccc(C#Cc2cnc3c(c2)C(=O)N([C@@H](C)CO)C[C@@H](C)[C@@H](CN(C)CC2CCOCC2)O3)cc1, the Potency was active: 18.4 µM. In the case of CCc1ccc(CNCCNC(=O)c2ccco2)cc1, the Potency was “inactive”. With Cc1sc2nc(CN(C(=O)NCc3ccccc3)C3CCCC3)[nH]c(=O)c2c1C the Potency was inconclusive [inhibitor, single point]. In the case of c1ccc(Nc2nc(N3CCCCC3)nc(N3CCNCC3)n2)cc1, the Potency was active: 29.1 µM. In the case of Cc1ccc(NC(=O)COc2ccc3oc4c(c3c2)CCCC4)c(C)c1, the Potency was inconclusive [inhibitor, partial curve]. With CCCCN(C/C=C/c1ccccc1OC)Cc1ccccc1 the Potency was inconclusive [inhibitor, single point]. With C=C(C1=CCN(S(=O)C(C)(C)C)[C@@H]1CCO)c1ccccc1 (stereo partly drawn) the Potency was active: 7.31 µM. For CCN(Cc1ccccc1)C(c1ccccn1)c1nnnn1C(C)(C)CC (stereo not drawn), the Potency was inconclusive [inhibitor, single point]. With CCN1CC(CN(C)Cc2nc(-c3ccc(Cl)cc3)no2)CC1=O (stereo not drawn) the Potency was active: 16.4 µM. With COc1ccc(NC(=O)c2cc(-c3ccccn3)nc3c(C)cc(C)cc23)c(C)c1 the Potency was inconclusive [inhibitor, single point]. With CN1CCN(Cc2nc3c(c(=O)n(C)c(=O)n3C)n2Cc2cccc3ccccc23)CC1 the Potency was inconclusive [inhibitor, single point]. In the case of CC(C)(C)OC1NS(=O)(=O)OCC1NCOC(Cl)(Cl)Cl (stereo not drawn), the Potency was active: 3.26 µM. With CCCc1c(C)nc2ccc(OC)cc2c1SCCC(=O)O the Potency was inconclusive [inhibitor, partial curve, poor fit]. In the case of COc1ccccc1N1CCN(C(=O)C2CCN(S(=O)(=O)c3cccc4nonc34)CC2)CC1, the Potency was inconclusive [inhibitor, single point]. With Cc1cccc(C)c1NC(=O)c1ccc(-c2cc(F)ccc2F)o1 the Potency was active: 18.4 µM. With O=C(c1cc(C2CC2)nn1-c1ccccc1)N1CCN(S(=O)(=O)c2c(F)cccc2F)CC1 the Potency was inconclusive [inhibitor, single point]. In the case of Cc1csc(SC(C)C(=O)NC2CCCCC2C)n1 (stereo not drawn), the Potency was “inactive”. For Cc1occc1C(=O)N1CCCC(CCC(=O)NCc2ccc(F)c(F)c2)C1 (stereo not drawn), the Potency was inconclusive [inhibitor, partial curve]. For CC(C)COc1ccc(C(=O)NCC2OCCc3ccccc32)cc1 (stereo not drawn), the Potency was inconclusive [inhibitor, single point]. In the case of Cc1nn(C)cc1CN1CCCC(C(=O)c2ccc(-c3ccccc3)cc2)C1 (stereo not drawn), the Potency was inconclusive [inhibitor, single point]. With COc1ccc(CC(=O)Nc2cccc(-c3nnc(-c4ccc(C)cc4)o3)c2)cc1OC the Potency was active: 6.51 µM. In the case of COc1cccc(N(C(=O)CCl)C(C(=O)NCCc2ccccc2)c2cccs2)c1 (stereo not drawn), the Potency was active: 4.11 µM. For CCOC(=O)C1=C(c2ccccc2)N=c2s/c(=C\c3ccco3)c(=O)n2C1c1cccs1 (stereo not drawn), the Potency was inconclusive [inhibitor, single point].
